{"source": "patent US20260216362A1", "about": "“ANTI-BDCA2 ANTIBODY-DRUG CONJUGATE AND USE THEREOF” (DUALITY BIOLOGICS (SHANGHAI) CO., LTD., priority 2022, published 2026)", "molecules": {"B1": {"name": "Hu033-03-ADC (conjugate)", "heavy": "EVQLVESGGGLVKPGGSLRLSCAASGFTFSSYGMSWVRQAPGKGLEWVSTISSGDSYTYYPDSVKGRFTISRDNAKNSLYLQMNSLRAEDTAVYYCARQIYYDYAYYFDFWGQGTTVTVSS[human IgG1 constant region not spelt out]", "light": "DIVLTQSPASLAVSPGQRATITCRASESVSFRTSHLMHWYQQKPGQPPKLLIYGASNLESGVPARFSGSGSETDFTLTINPVEAEDTANYFCQQSIEDPPTFGGGTKVEIKRTVAAPSVFIFPPSDEQLKSGTASVVCLLNNFYPREAKVQWKVDNALQSGNSQESVTEQDSKDSTYSLSSTLTLSKADYEKHKVYACEVTHQGLSSPVTKSFNRGEC"}}, "system": "GR reporter gene cells", "assay": "Bystander killing effect assay with GR reporter gene cells mixed with HEK293-humanBDCA2 or HEK293 cells", "assay_type": "cell-based, human", "conditions": "compared to isotype control antibody conjugate; 0.01-100 nM, 24 h", "description": "HEK293 cells cultured to the logarithmic growth phase were digested with TrypLE trypsin. The cells were collected, and the cell concentration was adjusted to 2×10^5 cells/mL using DMEM+10% FBS. 30 mL of the cells were seeded into a culture flask, and 1.5 mL of a transfection reagent was prepared according to the table doses.\n1.5 mL of the transfection reagent was mixed with 30 mL of the cells, and after 24 h of culture, GR reporter gene cells were collected. The GR reporter gene cells obtained by transfection were mixed with HEK293-humanBDCA2 cells or HEK293 cells at a ratio of 1:1 and added to a 96-well culture plate at 2×10^4 cells/well. The test reagent, positive control (dexamethasone, compound 4 in Example 2) and negative control (isotype IgG-ADC) were added at concentrations of 0.01-100 nM as designed for the experiment. After 24 h of incubation, the Promega Dual-Glo Luciferase Assay System detection reagent was added according to the manufacturer's instructions, and the Firefly and Renilla fluorescence signals were detected by Enspire reader. The glucocorticoid receptor signal produced by the bystander killing effect of the conjugate was calculated by dividing the Firefly signal by the Renilla signal.", "data": [{"molecule": "B1", "values": [{"measurement": "activation of GR reporter gene cells (bystander killing effect)", "result": "specifically activated GR reporter gene cells in the presence of BDCA2 expression"}]}]}
